Laboratory results from the CheMixHub viscosity set.
This continues a long series; more values of the same kind are listed elsewhere.

Experiment: xn = mol fraction of the nth substance listed
Conditions: 323.15 K, 101.33 kPa

CC(C)CC(C)(C)C + C1CCCCC1
Conditions	viscosity [mPa·s]
x1 = 0.2147	0.5072
x1 = 0.2557	0.4944
x1 = 0.2984	0.482
x1 = 0.343	0.4687
x1 = 0.3895	0.4559
x1 = 0.4382	0.4457
x1 = 0.4891	0.4358
x1 = 0.5423	0.4251
x1 = 0.5982	0.4147
x1 = 0.6569	0.4059
x1 = 0.7185	0.3975
x1 = 0.7834	0.3888
x1 = 0.8517	0.3804
x1 = 0.9238	0.3727
